Drawing on patent publication US8247569B2, “Cyclohexane derivative and pharmaceutical use thereof” (Toray Industries, Inc., priority 2008, dated 2012), this text covers microsomal CLint for one compound.

Data set [1] can be described thus: human liver microsomal stability assay. The data set is classed as in vitro ADME. The following applies: liver microsomes, pH 7.4, human liver microsomes 0.5 mg/mL, test compound 2 μmol/L, 37° C., 0-30 min, read-out: Hepatic intrinsic clearance, Human. On the procedure:
(§1) A liver microsomal stability assay, which is known to be an in vitro assay for evaluation of the stability of a compound against hepatic metabolism, was carried out to evaluate the stability of Compound (I) against human and mouse hepatic metabolism.
(§2) A total of 4 times of experiments were carried out for the combinations of the compound of Example 2-B or the compound of Comparative Example 29 as the test compound and human liver microsomes (Xenotech) or mouse liver microsomes (Xenotech) as the liver microsomes.
(§3) The respective reagents to be used for the liver microsomal stability assay were prepared as follows. That is, an appropriate amount of D-glucose 6-phosphate disodium salt (hereinafter referred to as G6P) was dissolved in distilled water at 100 mmol/L, to prepare 100 mmol/L aqueous G6P solution. In 5 mL of distilled water, 1000 units of Glucose 6-phosphate dehydrogenase from Yeast (hereinafter referred to as G6PDH) was dissolved, to prepare 200 units/mL aqueous G6PDH solution. An appropriate amount of MgCl2 was dissolved in distilled water at 100 mmol/L, to prepare 100 mmol/L aqueous MgCl2 solution. […]

The nature of data set [2]: mouse liver microsomal stability assay. The data set is classed as in vitro ADME. The following applies: pH 7.4; mouse liver microsomes 0.5 mg/mL; test compound 2 μmol/L; 37° C., 0-30 min; read-out: Hepatic intrinsic clearance, Mouse. On the procedure: as §1, §2, §3

As to `COc1ccc(-n2nc(C3(O)CCC(O)CC3)cc2-c2ccc(C)cc2)cc1` (stereo not drawn) [Example 2-B, 1-(1-(4-methoxyphenyl)-5-(p-tolyl)-1H-pyrazol-3-yl)cyclohexane-cis-1,4-diol], the microsomal CLint at 2 μmol/L in data set [1] is 14.8 µL/min/mg; in data set [2], 16.8 µL/min/mg.
